# According to the supplement of paper PMC8728848:
# This is one part of the list.
# B1: IRP60A (Homo sapiens), Q9UGN4 (protein)
# chain: MWLPWALLLLWVPGCFALSKCRTVAGPVGGSLSVQCPYEKEHRTLNKYWCRPPQIFLCDKIVETKGSAGKRNGRVSIRDSPANLSFTVTLENLTEEDAGTYWCGVDTPWLRDFHDPVVEVEVSVFPASTSMTPASITAAKTSTITTAFPPVSSTTLFAVGATHSASIQEETEEVVNSQLPLLLSLLALLLLLLVGASLLAWRMFQKWIKAGDHSELSQNPKQAATQSELHYANLELLMWPLQEKPAPPREVEVEYSTVASPREELHYASVVFDSNTNRIAAQRPREEEPDSDYSVIRKT
# Key:
# Test in all cases: glycan array binding signal (z-score within array); higher = stronger binding
# Settings in all cases: glycan notation: IUPAC condensed, linker removed
# Glc(b1-4)Glc = target: Glc(b1-4)Glc
# How it was run: (§1)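 Columns mapping to the same glycan were averaged after glycan names were converted to IUPAC-condensed notation. The data come from 3228 arrays in the Consortium for Functional Glycomics database, limited to those with an available protein sequence. Binding is reported as a within-array Z-score averaged across arrays of one protein sequence and across linkers.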
# Glc(b1-6)Glc = target: Glc(b1-6)Glc
# How it was run: as §1
# [1] = target: GlcNAc(b1-2)Gal(b1-3)GalNAc
# How it was run: as §1
# GlcNAc(b1-3)Gal = target: GlcNAc(b1-3)Gal
# How it was run: as §1
# [2] = target: GlcNAc(b1-3)Gal(b1-3)GalNAc
# How it was run: as §1
# GlcNAc(b1-3)Gal(b1-4)Glc = target: GlcNAc(b1-3)Gal(b1-4)Glc
# How it was run: as §1
# [3] = target: GlcNAc(b1-3)Gal(b1-4)GlcNAc
# How it was run: as §1
# [4] = target: GlcNAc(b1-3)[GlcNAc(b1-6)]GalNAc
# How it was run: as §1
# [5] = target: GlcNAc(b1-3)[GlcNAc(b1-6)]GlcNAc(b1-4)GlcNAc
# How it was run: as §1
# [6] = target: GlcNAc(b1-4)GlcNAc(b1-4)GlcNAc
# How it was run: as §1
# [7] = target: GlcNAc(b1-4)[GlcNAc(b1-6)]GalNAc
# How it was run: as §1
# GlcNAc(b1-6)GalNAc = target: GlcNAc(b1-6)GalNAc
# How it was run: as §1
# Kdn(a2-3)Gal(b1-3)GlcNAc = target: Kdn(a2-3)Gal(b1-3)GlcNAc
# How it was run: as §1
# Kdn(a2-3)Gal(b1-4)GlcNAc = target: Kdn(a2-3)Gal(b1-4)GlcNAc
# How it was run: as §1
# [8] = target: Man(a1-2)Man(a1-2)Man(a1-3)Man
# How it was run: as §1
# [9] = target: Man(a1-2)Man(a1-2)Man(a1-6)[Man(a1-3)]Man
# How it was run: as §1
# Man(a1-2)Man(a1-3)Man = target: Man(a1-2)Man(a1-3)Man
# How it was run: as §1
# [10] = target: Man(a1-2)Man(a1-3)[Man(a1-2)Man(a1-6)]Man
# How it was run: as §1
# [11] = target: Man(a1-2)Man(a1-3)[Man(a1-2)Man(a1-6)]Man(a1-6)[Man(a1-2)Man(a1-2)Man(a1-3)]Man(b1-4)GlcNAc(b1-4)GlcNAc
# How it was run: as §1
# [12] = target: Man(a1-2)Man(a1-3)[Man(a1-2)Man(a1-6)]Man(a1-6)[Man(a1-3)[Man(a1-6)]Man(a1-6)]Man(b1-4)GlcNAc(b1-4)GlcNAc
# How it was run: as §1
# [13] = target: Man(a1-2)Man(a1-3)[Man(a1-6)]Man(a1-6)[Man(a1-2)Man(a1-3)]Man(b1-4)GlcNAc(b1-4)GlcNAc
# How it was run: as §1
# [14] = target: Man(a1-2)Man(a1-6)[Man(a1-3)]Man(a1-6)[Man(a1-2)Man(a1-2)Man(a1-3)]Man(b1-4)GlcNAc(b1-4)GlcNAc
# How it was run: as §1
# Man(a1-3)[Man(a1-6)]Man = target: Man(a1-3)[Man(a1-6)]Man
# How it was run: as §1
# [15] = target: Man(a1-3)[Man(a1-6)]Man(a1-6)[Man(a1-3)]Man(b1-4)GlcNAc(b1-4)GlcNAc
# How it was run: as §1
# Neu5Ac(a2-3)Gal = target: Neu5Ac(a2-3)Gal
# How it was run: as §1
# [16] = target: Neu5Ac(a2-3)Gal(b1-3)GalNAc
# How it was run: as §1
# [17] = target: Neu5Ac(a2-3)Gal(b1-3)GalNAc6S
# How it was run: as §1
# [18] = target: Neu5Ac(a2-3)Gal(b1-3)GlcNAc
# How it was run: as §1
# [19] = target: Neu5Ac(a2-3)Gal(b1-3)[Fuc(a1-4)]GlcNAc
# How it was run: as §1
# [20] = target: Neu5Ac(a2-3)Gal(b1-3)[Neu5Ac(a2-3)Gal(b1-4)]GlcNAc
# How it was run: as §1
# [21] = target: Neu5Ac(a2-3)Gal(b1-3)[Neu5Ac(a2-6)]GalNAc
# How it was run: as §1
# Neu5Ac(a2-3)Gal(b1-4)Glc = target: Neu5Ac(a2-3)Gal(b1-4)Glc
# How it was run: as §1
# [22] = target: Neu5Ac(a2-3)Gal(b1-4)GlcNAc
# How it was run: as §1
# [23] = target: Neu5Ac(a2-3)Gal(b1-4)GlcNAc(b1-3)Gal(b1-4)GlcNAc
# How it was run: as §1
# [24] = target: Neu5Ac(a2-3)Gal(b1-4)GlcNAc(b1-3)Gal(b1-4)GlcNAc(b1-3)Gal(b1-4)GlcNAc
# How it was run: as §1
# [25] = target: Neu5Ac(a2-3)Gal(b1-4)GlcNAc6S
# How it was run: as §1
# [26] = target: Neu5Ac(a2-3)Gal(b1-4)[Fuc(a1-3)]GlcNAc
# How it was run: as §1
# [27] = target: Neu5Ac(a2-3)Gal(b1-4)[Fuc(a1-3)]GlcNAc(b1-3)Gal
# How it was run: as §1
# [28] = target: Neu5Ac(a2-3)Gal(b1-4)[Fuc(a1-3)]GlcNAc(b1-3)Gal(b1-4)GlcNAc
# How it was run: as §1
# [29] = target: Neu5Ac(a2-3)Gal(b1-4)[Fuc(a1-3)]GlcNAc(b1-3)Gal(b1-4)[Fuc(a1-3)]GlcNAc(b1-3)Gal(b1-4)[Fuc(a1-3)]GlcNAc
# How it was run: as §1
# [30] = target: Neu5Ac(a2-3)Gal(b1-4)[Fuc(a1-3)]GlcNAc6S
# How it was run: as §1
# [31] = target: Neu5Ac(a2-3)Gal6S(b1-4)GlcNAc
# How it was run: as §1
# Neu5Ac(a2-3)GalNAc = target: Neu5Ac(a2-3)GalNAc
# How it was run: as §1
# [32] = target: Neu5Ac(a2-3)[GalNAc(b1-4)]Gal(b1-4)Glc
# How it was run: as §1
# [33] = target: Neu5Ac(a2-3)[GalNAc(b1-4)]Gal(b1-4)GlcNAc
# How it was run: as §1
binder,measurement,setting,value
B1,glycan array binding signal (z-score),Glc(b1-4)Glc,-0.35
same,glycan array binding signal (z-score),Glc(b1-6)Glc,-0.124
same,glycan array binding signal (z-score),[1],-0.288
same,glycan array binding signal (z-score),GlcNAc(b1-3)Gal,-0.069
same,glycan array binding signal (z-score),[2],-0.209
same,glycan array binding signal (z-score),GlcNAc(b1-3)Gal(b1-4)Glc,-0.264
same,glycan array binding signal (z-score),[3],-0.227
same,glycan array binding signal (z-score),[4],0.066
same,glycan array binding signal (z-score),[5],-0.369
same,glycan array binding signal (z-score),[6],-0.398
same,glycan array binding signal (z-score),[7],-0.193
same,glycan array binding signal (z-score),GlcNAc(b1-6)GalNAc,0.154
same,glycan array binding signal (z-score),Kdn(a2-3)Gal(b1-3)GlcNAc,-0.249
same,glycan array binding signal (z-score),Kdn(a2-3)Gal(b1-4)GlcNAc,-0.156
same,glycan array binding signal (z-score),[8],-0.241
same,glycan array binding signal (z-score),[9],-0.415
same,glycan array binding signal (z-score),Man(a1-2)Man(a1-3)Man,-0.421
same,glycan array binding signal (z-score),[10],-0.431
same,glycan array binding signal (z-score),[11],-0.267
same,glycan array binding signal (z-score),[12],-0.396
same,glycan array binding signal (z-score),[13],-0.327
same,glycan array binding signal (z-score),[14],-0.395
same,glycan array binding signal (z-score),Man(a1-3)[Man(a1-6)]Man,8.07
same,glycan array binding signal (z-score),[15],-0.418
same,glycan array binding signal (z-score),Neu5Ac(a2-3)Gal,-0.412
same,glycan array binding signal (z-score),[16],-0.336
same,glycan array binding signal (z-score),[17],-0.304
same,glycan array binding signal (z-score),[18],-0.223
same,glycan array binding signal (z-score),[19],-0.437
same,glycan array binding signal (z-score),[20],-0.378
same,glycan array binding signal (z-score),[21],-0.405
same,glycan array binding signal (z-score),Neu5Ac(a2-3)Gal(b1-4)Glc,-0.178
same,glycan array binding signal (z-score),[22],-0.225
same,glycan array binding signal (z-score),[23],-0.284
same,glycan array binding signal (z-score),[24],0.667
same,glycan array binding signal (z-score),[25],-0.381
same,glycan array binding signal (z-score),[26],-0.337
same,glycan array binding signal (z-score),[27],-0.39
same,glycan array binding signal (z-score),[28],-0.185
same,glycan array binding signal (z-score),[29],3.02
same,glycan array binding signal (z-score),[30],1.71
same,glycan array binding signal (z-score),[31],-0.213
same,glycan array binding signal (z-score),Neu5Ac(a2-3)GalNAc,-0.3
same,glycan array binding signal (z-score),[32],-0.369
same,glycan array binding signal (z-score),[33],-0.286
